Test results taken from the supplement of paper PMC6531468.
Some of the results follow. Values come from read counts of a selection and are noisy. Each score is taken over the longer molecules that contain the sequence shown.

Assays:
Experiment in all cases: 6-mer SELEX enrichment z-score vs GST control; IMP3 is the RNA-binding protein IGF2BP3; higher = more enriched by binding
[1] = tested on: IMP3 KH1-4; conditions: construct: KH1-4 (164-579); SELEX round: R4
Protocol: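 SELEX-seq with GST-tagged IMP3 KH1-4 (Pro164-Lys579) and an N40 RNA pool, round 4. 6-mer z-score of sequence-tag enrichment normalised to the corresponding GST SELEX round; RNA k-mers written as DNA (T for U).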

[2] = tested on: IMP3 RRM1-2; conditions: construct: RRM1-2 (1-163); SELEX round: R2
IMP3 RRM1-2, sequence (chain, as listed by the source): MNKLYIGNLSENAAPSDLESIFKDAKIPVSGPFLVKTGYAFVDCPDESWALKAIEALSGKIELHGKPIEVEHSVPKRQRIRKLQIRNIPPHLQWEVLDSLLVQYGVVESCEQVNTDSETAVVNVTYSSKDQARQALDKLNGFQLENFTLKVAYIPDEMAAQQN
Protocol: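 SELEX-seq with GST-tagged IMP3 RRM1-2 (Met1-Asn163) and an N40 RNA pool, round 2. 6-mer enrichment z-score normalised to GST SELEX. RNA written as DNA (T = U).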

[3] = target: IMP3 full-length (UniProt O00425); conditions: construct: FL IMP3 (1-579); SELEX round: R4
UniProt O00425, sequence (O00425 whole entry): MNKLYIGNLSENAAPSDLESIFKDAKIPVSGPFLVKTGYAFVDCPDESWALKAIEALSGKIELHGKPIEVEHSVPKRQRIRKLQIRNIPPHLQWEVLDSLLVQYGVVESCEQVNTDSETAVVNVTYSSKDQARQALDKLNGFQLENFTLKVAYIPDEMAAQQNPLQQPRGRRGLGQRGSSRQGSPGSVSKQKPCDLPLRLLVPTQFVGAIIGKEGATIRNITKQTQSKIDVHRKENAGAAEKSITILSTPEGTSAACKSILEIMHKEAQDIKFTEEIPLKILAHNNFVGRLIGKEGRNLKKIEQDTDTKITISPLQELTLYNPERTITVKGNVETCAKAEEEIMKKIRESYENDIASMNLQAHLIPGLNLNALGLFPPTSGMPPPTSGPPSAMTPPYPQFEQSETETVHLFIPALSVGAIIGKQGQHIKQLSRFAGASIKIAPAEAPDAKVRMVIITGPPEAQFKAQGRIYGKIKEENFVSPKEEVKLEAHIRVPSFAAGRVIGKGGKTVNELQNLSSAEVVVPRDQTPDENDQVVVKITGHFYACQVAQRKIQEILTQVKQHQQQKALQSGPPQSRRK
Protocol: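 SELEX-seq with GST-tagged full-length IMP3 and an N40 RNA pool, round 4. Each 6-mer is scored as an enrichment z-score of sequence tags containing it, normalised to the matching GST SELEX round. RNA written as DNA (T = U).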

[4] = tested on: IMP3 KH3-4; conditions: construct: KH3-4 (377-579); SELEX round: R4
IMP3 KH3-4, sequence (chain, as listed by the source): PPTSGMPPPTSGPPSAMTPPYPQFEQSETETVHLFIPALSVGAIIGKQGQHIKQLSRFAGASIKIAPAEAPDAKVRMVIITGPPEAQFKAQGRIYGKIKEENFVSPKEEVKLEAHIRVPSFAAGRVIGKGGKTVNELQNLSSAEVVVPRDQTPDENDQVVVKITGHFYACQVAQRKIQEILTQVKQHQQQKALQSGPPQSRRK
Protocol: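 SELEX-seq with GST-tagged IMP3 KH3-4 (Pro377-Lys579) and an N40 RNA pool, round 4. 6-mer z-score of sequence-tag enrichment normalised to the corresponding GST SELEX round; RNA k-mers written as DNA (T for U).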

IMP3 KH1-4, sequence (chain, as listed by the source): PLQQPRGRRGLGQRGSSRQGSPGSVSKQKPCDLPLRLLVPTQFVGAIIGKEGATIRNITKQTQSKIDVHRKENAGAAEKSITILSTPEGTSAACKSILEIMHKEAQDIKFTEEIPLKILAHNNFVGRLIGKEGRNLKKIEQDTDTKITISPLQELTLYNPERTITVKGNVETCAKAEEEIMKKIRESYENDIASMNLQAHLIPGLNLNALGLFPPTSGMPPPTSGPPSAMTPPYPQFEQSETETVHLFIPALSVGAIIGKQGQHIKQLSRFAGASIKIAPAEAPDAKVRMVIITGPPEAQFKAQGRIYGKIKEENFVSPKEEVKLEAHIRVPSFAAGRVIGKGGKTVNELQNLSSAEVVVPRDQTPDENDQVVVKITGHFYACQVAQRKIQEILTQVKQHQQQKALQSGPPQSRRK

Sequence | 6-mer SELEX enrichment z-score [1] | 6-mer SELEX enrichment z-score [2] | 6-mer SELEX enrichment z-score [3] | 6-mer SELEX enrichment z-score [4]
TAATCA | 1.22 | 1.52 | 1.06 | 1.47
GGGCCA | -0.122 | 0.091 | 0.597 | -0.008
AGGCGT | -0.984 | 0.28 | 0.041 | -0.635
AAAAGT | -0.543 | -1.5 | -1.31 | -0.103
CAGTAA | 0.696 | -0.047 | 0.624 | 0.666
CAATAT | 1.96 | 0.257 | 1.01 | 2.26
CACGCC | 0.09 | 0.028 | 0.388 | -0.877
TCATCT | 0.683 | 0.936 | 1.05 | 0.341
CACACC | 0.306 | 1.24 | 0.848 | -1.26
CCAGCA | -0.079 | 0.857 | 0.793 | -0.71
GTCATG | 0.202 | 0.174 | 0.405 | 0.164
TGTTTA | 0.335 | 0.171 | -0.111 | 0.574
GGAATT | 0.514 | -0.263 | -0.161 | 0.769
TGTTAA | 0.111 | -0.207 | -0.332 | 0.376
CTGTCA | 0.389 | 0.291 | 0.381 | 0.017
GCGTAC | -2.4 | -0.101 | -0.907 | -2.12
GCCATA | 0.99 | 0.069 | 0.62 | 0.915
CCGAAT | -0.913 | -1.12 | -0.994 | -0.979
GTGCCC | -1.7 | -0.197 | -0.857 | -1.79
AGTACG | 0.101 | -0.207 | 0.165 | 0.027
AATGAG | -0.637 | -0.935 | -1.35 | 0.054
TTAGTA | 0.171 | 0.14 | -0.07 | 0.361
CTTTTC | 0.84 | 0.43 | 0.326 | 0.581
ATGGAA | 1.08 | -0.67 | -0.235 | 1.17
ATATTT | 1.87 | 0.358 | 0.636 | 2.68
ACTCGT | -0.906 | -0.008 | -0.46 | -0.803
GTGCTG | 0.194 | 0.115 | 0.071 | 0.109

Sequence | 6-mer SELEX enrichment z-score [1] | 6-mer SELEX enrichment z-score [2] | 6-mer SELEX enrichment z-score [3] | 6-mer SELEX enrichment z-score [4]
GGGGAG | 1.14 | -0.19 | 0.536 | 1.18
CGAGCT | -1.68 | 0.185 | -0.322 | -1.34
CAATTA | 1.47 | 0.213 | 0.308 | 1.88
ACGGAC | -0.127 | -0.636 | -0.227 | -0.51
AGCCTT | -0.381 | -0.073 | -0.435 | -0.445
ATGAAT | 2.24 | -0.641 | 0.04 | 2.98
AAGCGC | -1.6 | -0.52 | -0.939 | -1.45
GAACTA | 0.245 | -1.02 | -0.644 | 0.578
ATGTTC | 0.617 | 0.164 | 0.162 | 0.5
TCGCAG | -0.214 | 0.249 | 0.297 | -0.253
GAGATG | 0.221 | -0.689 | -0.445 | 0.438
AAAGTG | -0.385 | -1.14 | -1.03 | -0.08
GTTCCC | -0.442 | -0.016 | -0.443 | -0.774
ACGAAC | -1.3 | -1.08 | -1.09 | -1.31
CGGTAG | -0.253 | 0.08 | 0.021 | -0.105
TCAAAG | -0.789 | 0.048 | -0.256 | -0.581
CCGGGG | 0.268 | -0.397 | 0.508 | 0.243
CGCCAA | -0.739 | -0.49 | -0.284 | -1.05
TGGACT | -0.015 | -0.232 | -0.288 | -0.039
ATGGCT | 0.386 | 0.425 | 0.302 | 0.622
AAATGA | 0.823 | -2.23 | -1.62 | 2.4
GGAACT | -0.261 | -0.58 | -0.421 | -0.265
TCTGTT | 0.511 | 0.334 | 0.305 | 0.429
GTTATC | -0.215 | 0.346 | -0.067 | -0.17
CCAGGG | -0.326 | -0.134 | -0.053 | -0.332
CTATAA | 1.18 | -0.485 | -0.211 | 1.52
TACACA | 2.02 | 2.69 | 2.29 | 1.51
